From PubChem BioAssay AID256 (DTP/NCI, 2004) come the findings set out here.

This test has as its system CD2F1 mice, L1210 leukemia ip, survival T/C. Briefly: NCI In Vivo Anticancer Drug Screen. Data for tumor model L1210 Leukemia (intraperitoneal) in CD2F1 (CDF1) mice. The settings on record: endpoint: median survival time; dose: 8.0 mg/kg/injection; schedule: Q01DX009 (ip); vehicle: saline; higher = longer survival. As to the method:
The antitumor activity of compounds was measured in mice bearing transplantable tumors. Survival or tumor size were measured and the results are expressed as the measurement made in the treated group (T) divided by the measurement made in the vehicle treated control group (C). The tumor model used in this assay is L1210 Leukemia (intraperitoneal) in CD2F1 (CDF1) mice

The structures appear in SMILES notation. Inconclusive results and toxic doses are left out. Some entries of the source have several records that differ or are many. This is not the full list of results. An entry can have further records. Values that stand side by side do not match, cause unknown; they may come from other doses, times, organisms or constructs than stated.

On to `N[C@H](C(=O)O)[C@@H]1CC(Cl)=NO1`, for which the T/C is 98 % of control and 166 % of control.
